# Experimental data published in PubChem BioAssay AID1240 (Sanford-Burnham Center for Chemical Genomics, 2008).
# Hit rate of the full screen: of about 50,000 compounds, about 800 (1.6%) showed an effect of 50% or more. The list shows a part of the results.
# Target: Bcl-2-like protein 10 (Homo sapiens) (UniProt Q9HD36)
# Experiment: TR3 peptide-Bcl-B binding displacers, biochemical primary FP assay, phenotype converters (AID 1240);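 note: 0% = Bcl-B with tracer peptide and DMSO and 100% = tracer peptide lacking Bcl-B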
# Conditions: GST-Bcl-B / FITC-TR3 peptide fluorescence polarization; stronger effect = higher value; compound at 3.75 mg/L
# UniProt Q9HD36, sequence (Q9HD36 whole entry, looked up): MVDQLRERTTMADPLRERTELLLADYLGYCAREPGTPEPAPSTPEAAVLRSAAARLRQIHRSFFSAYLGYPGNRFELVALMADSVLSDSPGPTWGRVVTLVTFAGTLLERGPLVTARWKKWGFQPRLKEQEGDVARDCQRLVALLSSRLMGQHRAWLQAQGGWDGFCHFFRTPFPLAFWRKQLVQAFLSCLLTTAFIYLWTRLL
row,SMILES,displacement
1,CCOc1ccc(/C=C2\C(=O)NC(=O)N(c3ccc(CC)cc3)C2=O)cc1OC,-10.4%
2,Cc1ccccc1-c1nc2ccccc2o1,11.7%
3,Cc1ccc(-c2ccc(OCC(=O)Nc3ccccc3C(N)=O)cc2)cc1,4.4%
4,O=C(Oc1ccccc1/C=N/n1cnnc1)c1ccccc1Br,-8.5%
5,COc1ccc(-c2ccc(/C=C3/C(=O)NC(=O)N(c4ccc(C)cc4)C3=O)o2)c([N+](=O)[O-])c1,83.5%
6,CCOC(=O)c1c(-c2ccccc2)oc2ccc(OCC(=O)O)cc12,9.4%
7,CCCN1C(=O)C(O)(C2COC(C)(C)CC2=O)c2ccccc21 (centres undefined),4.2%
8,CCOC(=O)c1c(NC(=O)c2ccc(OCC(C)C)cc2)sc(C)c1C,-2%
9,O=S(=O)(c1ccc(Cl)cc1)N1CCN(Cc2cccnc2)CC1,-12.3%
10,O=C(Nc1ccc(-c2nc3ccccc3s2)c(O)c1)c1ccc2c(c1)OCCO2,-3.8%
11,COC(=O)c1ccc(OCC(O)CN2C(=O)c3ccccc3C2=O)cc1 (centres undefined),-1.1%
12,O=C(NC(=S)Nc1ccc2oc(-c3ccc(I)cc3)nc2c1)c1ccco1,28.7%
13,COc1cccc(N(CC(=O)Nc2ccccc2)S(=O)(=O)c2ccccc2)c1,24.6%
14,Cc1ccc(OCC(=O)Nc2cccc3c2CCCC3)c(Br)c1,-6.7%
15,COc1ccc(C(=O)Nc2ccc(N(C)C)cc2)cc1,6%
16,COc1cc(/C=C2\SC(=S)N(c3cccc(Cl)c3)C2=O)ccc1O,-10%
17,COC(=O)c1cc(NC(=O)CCc2ccccc2)cc(C(=O)OC)c1,16.8%
18,Cc1cc(/C=C2\NC(=S)NC2=O)c(C)n1-c1cccc([N+](=O)[O-])c1,13.6%
19,CCNC(=O)C(=O)Nc1ccc(OC)c(Cl)c1,1.9%
20,Cc1ccc(N=C2NC(=O)/C(=C/c3ccc(F)cc3)S2)cc1Cl,-6.4%
21,COc1cc(C=NN2CCN(Cc3ccc(C)cc3C)CC2)cc(OC)c1OC,-6.5%
22,O=C1NC(=Nc2cccc(Cl)c2Cl)S/C1=C\c1ccc([N+](=O)[O-])cc1,-105%

row,SMILES,displacement
1,COc1ccccc1N1C(=O)c2ccc3c4c(ccc(c24)C1=O)CC3,13.4%
2,Cc1ccc(OCC(=O)N/N=C/c2c(C)[nH]n(-c3ccccc3)c2=O)cc1,13.1%
3,COc1cccc(C2NC(=S)NC(C)=C2C(=O)Nc2ccc(C)cc2)c1 (centres undefined),-16.6%
4,COc1ccc(-c2n[nH]c(=S)n2/N=C/c2cccs2)cc1,-16.6%
5,Cc1cccc(NC(=O)c2cc3cc(Br)ccc3oc2=O)c1,5.9%
6,O=C(Nc1ccc(O)c(-c2nc3ccccc3s2)c1)c1ccc2c(c1)OCCO2,82.5%
7,Cc1cc(C)nc(NS(=O)(=O)c2ccc(NC(=O)c3ccc(S(=O)(=O)N4CCOCC4)cc3)cc2)n1,4.1%
8,CC1=NN(C(=O)c2ccc(Cl)cc2)C(O)(c2ccccc2)C1 (centres undefined),5.8%
9,Cc1ccc(C2=CC(=O)N(c3cccc(C(F)(F)F)c3)C2=O)cc1,5.3%
10,Cc1c(C(c2ccc(C(=O)O)cc2)c2c(C)n(C)n(-c3ccccc3)c2=O)c(=O)n(-c2ccccc2)n1C,-9.1%
11,COC(=O)c1c(NC(=O)Cc2ccccc2)sc2c1C(C(=O)OC)CC2 (centres undefined),-14.8%
12,COc1ccc(S(=O)(=O)Nc2cc(C)ccc2C)cc1OC,1.2%
13,O=C(Nc1ccc(OCc2ccccc2)cc1)c1ccc(Cl)c([N+](=O)[O-])c1,-0.2%
14,CCOC(=O)C1=C(C)N=c2s/c(=C\c3ccc([N+](=O)[O-])cc3)c(=O)n2C1c1ccccc1 (centres undefined),12.9%
15,Cc1ccccc1OCC(=O)Nc1cccc(I)c1,-2.4%
16,CCOc1ccc(/C=C2\N=C(c3ccccc3Br)OC2=O)cc1,-2.1%
17,CCOC(=O)C1=NNC2C(=O)N(c3ccc(C)cc3C)C(=O)C12 (centres undefined),-14.6%
18,COc1ccc(CN2CCN(C(=O)c3ccc(-c4ccccc4)cc3)CC2)cc1OC,-7.9%
19,O=C(O)CCCCCN1C(=O)C(=O)/C(=C(\O)c2ccc(Br)cc2)C1c1cccc(F)c1 (centres undefined),-11.8%
20,COc1ccc2c(c1)OCC/C2=N\OC(=O)c1ccc(Oc2ccccc2)cc1,-10.3%
21,COC(=O)c1cc(S(=O)(=O)N2CCOCC2)ccc1Cl,-4.1%
22,Cc1ccc(OCc2nc(-c3ccc(Cl)cc3)no2)c(Br)c1,12.8%

row,SMILES,displacement
1,COc1ccc(/C=N/NC(=O)COc2ccc3c(C)cc(=O)oc3c2)cc1,14.7%
2,CCOC(=O)CSc1nc2cc(OCC)ccc2n1C,-6%
3,COc1ccc(-c2nn(CN3CCOCC3)c(=S)o2)cc1,-10.4%
4,Cc1ccc2oc(C(=O)Nc3ccc(N4CCOCC4)c(Cl)c3)c(C)c2c1,-4%
5,CCOc1ccc(C(=O)Nc2ccc3ccccc3c2)cc1[N+](=O)[O-],13.2%
6,Cc1cccc(NC(=O)CCC(=O)N/N=C/c2ccncc2)c1,0.1%
7,CC12CC(O)C3(F)C(CCC4=CC(=O)C=CC43C)C1CC=C2C(=O)CO (centres undefined),-14.9%
8,O=C(NCc1ccco1)Nc1ccncc1,4.5%
9,COc1cc(OC)cc(C(=O)N2CCN(Cc3cccc4ccccc34)CC2)c1,5.2%
10,Cc1ccc2c(nc3s/c(=C\c4cccc(Cl)c4Cl)c(=O)n32)c1C,-9.5%
11,CCOC(=O)c1c(C)oc2ccc(NS(=O)(=O)c3cc(Cl)ccc3Cl)cc12,5.9%
12,Cc1cccc(NC(=O)CCCOc2ccccc2)c1,-6.4%
13,COc1ccc(-c2nnc(NC(=O)CCc3ccccc3)s2)cc1OC,6%
14,Cc1cc(NC(=O)COC(=O)/C=C/c2ccc([N+](=O)[O-])cc2)no1,17.2%
15,Cc1ccc(C(=O)NC(NC(=S)Nc2cccc3ccccc23)C(Cl)(Cl)Cl)cc1 (centres undefined),54.9%
16,NC(=O)c1ccc[n+](CC(=O)c2cc3ccccc3oc2=O)c1,0%
17,COc1ccc(C2/C(=C(/O)c3ccc(C)cc3)C(=O)C(=O)N2CCCCCC(=O)O)cc1OC (centres undefined),-12.3%
18,O=C(O)CC(NC(=O)Cc1ccccc1)c1ccccc1 (centres undefined),6.2%
19,N#CC1=C(SCC(=O)Nc2ccccc2)NC(=O)CC1c1ccc(F)cc1 (centres undefined),1.4%
20,COc1ccccc1N(CC(=O)NCc1ccncc1)S(=O)(=O)c1ccccc1,4.9%
21,O=C(Nc1nnc(-c2ccccc2)s1)c1ccc(Cl)cc1Cl,16.3%
22,Nc1ccc(S(=O)(=O)O)c2cccc(S(=O)(=O)O)c12,7.8%

row,SMILES,displacement
1,Cc1cc(C=C2C(=O)NC(=S)NC2=O)c(C)n1-c1cccc(Cl)c1,107%
2,CC(C)(C)N1C(=O)c2ccc(C(=O)Nc3cccc(O)c3)cc2C1=O,13.1%
3,COc1cc(CNc2ccc(C)c(C)c2)cc(OC)c1OC,15.1%
4,COc1ccc(/C=C/C(=O)Nc2ccc(NC3CCCCC3)c3c2C(=O)c2ccccc2C3=O)cc1,10.5%
5,COCCNC(=O)/C(=C/c1ccco1)NC(=O)c1ccc(OC)cc1,22.2%
6,C=CCOc1c(Cl)cc(/C=C2/C(=O)NN(c3ccc(C)c(C)c3)C2=O)cc1OC,-0.5%
7,CCS(=O)(=O)Nc1ccc(Cc2ccncc2)cc1,1.2%
8,CCOC(=O)CSc1cc(C)nc2ccc(C)cc12,1.4%
9,O=C(Nc1ccc(Br)cn1)Nc1ccccc1Cl,-3.3%
10,CCOc1ccc(C=C2C(=O)NC(=S)NC2=O)cc1Cl,4%
11,Cc1ccc(C(=O)N2CCN(C(=O)CN3CCOCC3)C2)cc1,-1.7%
12,COc1cc(/C=C(/C#N)c2nc3ccccc3[nH]2)c([N+](=O)[O-])cc1OCCC(C)C,69.6%
13,O=C(Nc1nnc(C23CC4CC(CC(C4)C2)C3)s1)c1cccs1,6.6%
14,CC(C)Cc1nn2c(=O)cc(O)nc2s1,-4.2%
15,CC(C)CNC(=O)C(=O)Nc1ccc(Oc2ccccc2)cc1,5.2%
16,CC(C)(C)c1cc(N2C(=O)C(=O)/C(=C(\O)c3ccccc3)C2c2ccc(Br)cc2)no1 (centres undefined),-9.5%
17,CC1C2CC(CC1(C)C)N(C(=O)Nc1ccc3nccnc3c1)C2 (centres undefined),5.2%
18,Cc1ccc(N2C(=O)CC(N3CCCN(C)CC3)C2=O)cc1 (centres undefined),8.1%
19,C1=C=CC(OCCOc2ccc(/C=N/n3cnnc3)cc2)=CC=1,3.7%
20,Cc1ccc2nc(-c3ccc(N)cc3)cc(-c3ccccc3)c2c1,15.5%
21,O=C1CC(N=Cc2cccc(O)c2)=NN1c1ccccc1,11.2%
22,Cc1c(C(=O)NCC#N)cccc1[N+](=O)[O-],-3.3%

row,SMILES,displacement
1,CCc1cc(=O)oc2c(C)c(OC(C)=O)ccc12,-9%
2,COc1ccc(CCNC(=O)C(=O)Nc2ccc(C)cc2)cc1,-14.1%
3,O=C(CC1Nc2ccccc2NC1=O)c1ccccc1 (centres undefined),7.3%
4,C/C(=N\Nc1nc(-c2ccc(C)cc2)nc2ccccc12)c1cccc([N+](=O)[O-])c1,10.5%
5,O=C(NCCc1ccc(F)cc1)C(=O)NCC1CCCO1 (centres undefined),7.9%
6,O=CN1CCN(c2nc(-c3ccccc3)c3cc(Br)ccc3n2)CC1,84.9%
7,Cc1ccc(NC(=O)C2CC=CCC2C(=O)O)c(C)c1 (centres undefined),24.9%
8,COc1cc2ccccc2cc1C(=O)Nc1ccccc1C,-10.2%
9,COc1ccc(/C=C2\C(=O)N(c3cccc(C(=O)O)c3)N=C2C)cc1OC,2.4%
10,O=C(Nc1ccc2c(c1)OCCO2)C(Sc1ccccc1)c1ccccc1 (centres undefined),6.1%
11,Cc1ccc(C(=O)NCCCNc2ccc([N+](=O)[O-])cc2)cc1,11.9%
12,O=C(/C=C/c1ccc(-c2ccccc2[N+](=O)[O-])o1)c1ccc(Cl)cc1,16.4%
13,CC(C)OC(=O)c1c(-c2ccc(Br)cc2)csc1NC(=O)C1C2CCC(C2)C1C(=O)O (centres undefined),-2.4%
14,Cc1cc(Cl)ccc1OCC(=O)NCCCN1CCOCC1,-0.6%
15,COc1ccc2c(c1)nc(SCc1ccccc1)n2C,-1.6%
16,CCOC(=O)COc1c(C)cccc1C,16.9%
17,Cc1ccc(-n2nc3ccc(NC(=O)c4ccco4)cc3n2)cc1,49.3%
18,O=C(Cc1ccccc1)Nc1nnc(COc2ccccc2)s1,-4.7%
19,COc1ccc(S(=O)(=O)NNC(=O)c2ccc([N+](=O)[O-])cc2)cc1,0.4%
20,Oc1oc(-c2ccccc2)nc1C=Nc1ccc(Cl)c2cccnc12,36%
21,O=C(NCCc1ccc(F)cc1)C1CC(=O)N(c2ccccc2)C1 (centres undefined),-4.1%
